Each structure is given as a SMILES string. The campaign covered roughly 45,000 compounds. About 200 (0.44%) were called active. Inconclusive results (about 7%) are left out. Calls follow the shape of the dose curve; as a rule, active = well fitted activation curve with a large enough effect; inconclusive = small, poorly fitted or top-dose-only effect; inactive = no such curve, though single readings can be large or run the other way. Some of the results follow.

This test can be described thus: qHTS of TDP-43 Inhibitors: NCGC Sytravon Library Screen. Also: 0% is about no effect; nearly all actives have a fitted effect of over 55% in size. The following applies: yeast TDP-43 toxicity rescue, BacTiter-Glo growth, 24 h; series mostly up to 46.1 µM; growth rescue (activation): at the top concentration. The procedure, abridged:
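TDP-43-expressing yeast, pregrown in raffinose, seeded at OD600 0.02 in galactose medium with compound for 24 hr at 30 deg C. Growth read by BacTiter-Glo luminescence, so rescue of toxicity appears as activation.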
For orientation: In qHTS, concentration-response curves come from the screen itself.
For the compound `CCCN(CCC)Cc1c(C(=O)N/N=C/c2cccs2)nnn1-c1nonc1N`, the “growth rescue (activation)” value was inactive: -16.2%. With `OCc1cccc(-c2csc(C(O)c3ccccc3)n2)c1` (stereo not drawn) the figure was inactive: 29%; with `COc1ccccc1C(=O)Nc1cc(Cl)ccc1O`, inactive: 0.129%. For the compound `CNC(=O)/C(C#N)=C/c1ccc(-c2ccccc2[N+](=O)[O-])o1`, the “growth rescue (activation)” value was inactive: 0.847%. Turning to `O=C(NNC(=O)c1ccccc1F)c1ccc(S(=O)(=O)N2CCCC2)cc1`, the “growth rescue (activation)” value was inactive: 17.4%.

`N#Cc1ccc(OCC(O)CN2CCN(C(c3ccccc3)c3ccccc3)CC2)cc1` (stereo not drawn): the “growth rescue (activation)” value was inactive: 4.36%. On to `CC(C)N(C(=O)COC(=O)CNC(=O)c1ccc(Br)cc1)c1ccccc1`, for which the “growth rescue (activation)” value was inactive: 6.4%.

As for `CC(C)Cc1nnc(NC(=O)c2cc3c(s2)CCC3)s1`, the “growth rescue (activation)” value is inactive: 2.84%.

Turning to `C=CCn1c(SCC(=O)Nc2cccnc2Cl)nnc1-c1ccc(C(C)(C)C)cc1`, the “growth rescue (activation)” value is inactive: 6.09%.

As for `CSCCC(NC(=O)c1ccccc1Br)C(=O)NCC1CCCCC1` (stereo not drawn), the “growth rescue (activation)” value is inactive: 6.11%. `C#CCOn1c(-n2nc(C)cc2C)nc2ccccc2c1=O`: the “growth rescue (activation)” value was inactive: -0.61%.

In the case of `OC1CCN(c2ncnc3c2nnn3Cc2c(F)cccc2Cl)CC1`, the “growth rescue (activation)” value is inactive: 25.3%. As to `O=C1C2C3C=CC(C2C(=O)N1c1cccc(O)c1)C1C2C(=O)N(c4cccc(O)c4)C(=O)C2C31` (stereo not drawn), the “growth rescue (activation)” value is inactive: 3.86%. The result for `COc1ccc(-n2nc(C(=O)NCC(=O)N3CC(C)CC(C)C3)c3ccccc3c2=O)c(OC)c1` (stereo not drawn) reads inactive: 11%.

With `O=C(NCc1ccccc1Cl)c1csc([C@@H]2O[C@H](CO)[C@@H](O)[C@H]2O)n1`, the “growth rescue (activation)” value was inactive: -5.19%. `N=c1sccn1CC(=O)Nc1ccc(S(N)(=O)=O)cc1`: the “growth rescue (activation)” value was inactive: -24.4%. As for `CN(C)c1ccc(CC(=O)N2CCCC(c3cc(C(=O)Nc4ccccc4)no3)C2)cc1` (stereo not drawn), the “growth rescue (activation)” value is inactive: -3.1%.

Turning to `C=CCn1cnnc1SCC(=O)N(C1CCCCC1)C1CCS(=O)(=O)C1` (stereo not drawn), the “growth rescue (activation)” value is inactive: -5.43%. Take `Cc1cccc(OCC(=O)Nc2ccc(S(=O)(=O)N3CCCC3)cc2)c1`: the “growth rescue (activation)” value was inactive: -11.4%. `CC(C)N(CCO)C(=O)CCc1nnc(Cc2cccc(C(F)(F)F)c2)o1`: the “growth rescue (activation)” value is inactive: 6.26%.

On to `COC(=O)c1cc(Br)c(=O)n(Cc2ccc(C(=O)O)cc2)c1`, for which the “growth rescue (activation)” value is inactive: -7.46%. Consider `COc1ccc(NS(=O)(=O)c2ccc(O)c([N+](=O)[O-])c2)cc1S(=O)(=O)N1CCCCC1`, for which the “growth rescue (activation)” value was inactive: 16.2%.

As to `Cc1ccc(C(C(=O)NCc2ccco2)N(C(=O)CNC(=O)c2cccs2)c2c(C)cccc2C)cc1` (stereo not drawn), the “growth rescue (activation)” value was inactive: -6.5%. With `COc1cc(Br)c(CC(=O)NNC(=O)c2ccc(F)cc2)cc1OC`, the “growth rescue (activation)” value was inactive: 15.3%.

Turning to `O=C(COc1cccnc1[N+](=O)[O-])N1N=C(c2ccc(Cl)cc2)CC1c1ccco1` (stereo not drawn), the “growth rescue (activation)” value was inactive: 1.98%. Consider `COc1ccc(CNC(=O)Cn2cc(C(F)(F)F)ccc2=O)cc1OC`, for which the “growth rescue (activation)” value is inactive: 6.6%. With `CC(OC(=O)C1CC1)C(=O)Nc1cc(Cl)cc(Cl)c1` (stereo not drawn), the “growth rescue (activation)” value is inactive: 19%. With `O=C(NNc1cc(C(F)(F)F)ccc1Cl)c1ccc(=O)[nH]c1` the figure was inactive: 5.24%.
